Measured values: the supplement of paper PMC11181314
The other results are listed elsewhere or left out. Single values of this set are uncertain.

Tested on: U2OS
Assay: Cell Painting induction (percent of morphological features significantly changed vs DMSO); higher = stronger morphological change
Conditions: 10 µM, 20 h
Protocol: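 Cell Painting assay in U2OS cells: compounds at 10 µM for 20 h, six dyes, 579 robust CellProfiler features as Z-scores vs DMSO median (MAD). Induction is the % of significantly changed features (active if ≥5%); relative cell count is in % of DMSO. The primary run holds DCM compounds preselected for induction ≥10%; the confirmation repeat defines active compounds (370 of 549). Replicate agreement is low, attributed to precipitation.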

[1] = run: primary screen (compounds selected for induction >=10%)
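Note: stains mark DNA, RNA and nucleoli, ER, actin, Golgi, plasma membrane and mitochondria, read by high-content imaging, with DMSO controls at matching solvent concentration.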

Structure (SMILES)	Cell Painting induction (run: confirmation repeat)	Cell Painting induction [1] [%]
COc1ccc(-c2cnnn2-c2ccc(NC(=O)/C=C/c3ccc(OC)c(OC)c3)cc2)cc1	active: 12.8%	10.4
COc1cccc(-c2cc(C(F)(F)F)n3ncc(C(=O)N4CCc5ccccc5C4)c3n2)c1	active: 6.6%	19.2
O=C(NCCCN1CCCC1)c1ccc2c(c1)N(Cc1ccccc1F)C(=O)c1ccccc1S2(=O)=O	active: 16.9%	39.6
COc1ccc(CN(C(=O)c2oc3cc(C)ccc3c2C)C2CCS(=O)(=O)C2)cc1OC (stereo not given)	inactive: 3.6%	12.6
COc1cc(NC(=O)CCCSc2nc(-c3ccco3)cc(C(F)(F)F)n2)cc(OC)c1OC	active: 7.9%	26.6
CCCN(C(=O)Cn1ncc2c3ccccc3nc-2c1O)c1ccccc1C	active: 7.9%	15.7
Cc1ccc(NC(=N)Nc2nc(O)cc(CSc3ccc(C)cc3)n2)cc1	inactive: 0.9%	41.5
CCc1ccc(-c2cc(C)no2)cc1S(=O)(=O)NCCN1CCC(C)CC1	active: 30.1%	30.7
Cc1cc(-c2ccc(C)c(S(=O)(=O)NCC3CCN(Cc4cccc(F)c4)CC3)c2)on1	active: 47.5%	43.9
COc1ccccc1NC(=O)CCc1c(C)nc2c(-c3ccc(F)cc3)c(C)nn2c1C	active: 21.1%	15.4
C=C(C)c1cccc(C(C)(C)NC(=O)N2CCN(C/C=C/c3ccccc3)CC2)c1	active: 5.7%	21.9
Brc1ccc(-c2nnc3sc(CN4CCc5ccccc5C4)cn23)cc1	inactive: 0.3%	36.1
CC1=C(C(=O)OC2CCCC2)C(c2coc3ccc(C)cc3c2=O)C2=C(O)CCCC2=N1 (stereo not given)	inactive: 0%	10.5
CO/C(O)=C1\C(C)=Nc2nc3ccccc3n2C1c1ccccc1F (stereo not given)	active: 44%	43
Cc1cccc(N2CCN(C(=O)c3cccc(N4CCCC4=O)c3)CC2)c1C	active: 21.6%	34.5
COCCNC(=O)C1CCN(C(=O)c2cc3sccc3n2Cc2ccc(F)cc2)CC1	active: 13.3%	10.7
CCOc1ccc(NC(=S)N(CCc2c(C)[nH]c3ccccc23)Cc2ccco2)cc1	active: 10.7%	20.4
Cc1ccc(N(Cc2ccc(C(=O)Nc3cc(Cl)ccc3C)cc2)S(C)(=O)=O)cc1C	active: 5.4%	20.6
Cc1c(/C=N/N=C2\CCC3C4CCc5cc(O)ccc5C4CCC23C)cnn1C (stereo not given)	inactive: 3.8%	17.6
Cc1ccc(-c2nc(C3CCCN(S(=O)(=O)c4ccc(C(C)(C)C)cc4)C3)no2)cc1 (stereo not given)	inactive: 0.3%	58.4
Cc1ccc(C)c(CSc2nc3ccncc3n2CC(=O)Nc2ccc(C)c(C)c2)c1	active: 12.6%	29.7
Cc1nc2nc(SCC(=O)NCCCN3CCCCC3)nn2c(C)c1Cc1ccccc1	inactive: 4.1%	15.9
COc1ccc(NC(=O)CCCn2c(=O)c3sccc3n(Cc3ccc(C)cc3C)c2=O)cc1	active: 34%	33.3
C=CCn1cc(C(=O)NCCN(CC)CC)c(=O)c2cc(S(=O)(=O)N3CCCCCC3)ccc21	active: 23.7%	38.3
COc1cc(OC)c(NC(=O)C2CCN(S(=O)(=O)c3ccc4c(c3)CC(C)N4C(C)=O)CC2)cc1Cl (stereo not given)	active: 8.1%	15.5

Structure (SMILES)	Cell Painting induction (run: confirmation repeat)	Cell Painting induction [1] [%]
CCOC(=O)c1[nH]c2c(c1-c1ccc(OC)cc1)C(=O)CC(c1ccc(OC)c(OC)c1)C2 (stereo not given)	active: 7.6%	13.1
CCN1CCN(c2cc(C)c3cc(NC(=O)CCC(=O)Nc4ccc(OC)c(OC)c4)ccc3n2)CC1	active: 27.5%	58.9
COc1ccc(Cl)cc1-n1nnc(C(=O)Nc2cccc(C(F)(F)F)c2)c1C	active: 23%	28
Cc1ccccc1-c1nc(S(=O)(=O)c2ccccc2)c(NCCCN2CCOCC2)o1	active: 17.4%	33
Nc1nc(CN2CCN(c3ccccc3)CC2)nc(Nc2ccc(Cl)cc2)n1	active: 18.8%	11.9
CCN(CC)CCNC(=O)COc1ccc(Cl)cc1Cl	active: 17.8%	16.4
CCCC(=O)c1ccc(N2CCN(S(=O)(=O)c3ccc(C)cc3)CC2)c(F)c1	inactive: 0.9%	19
CCn1cc(CN(C)C(=O)CSc2nc(-c3ccco3)cc(C(F)(F)F)n2)c(C)n1	active: 13.1%	16.4
COc1ccc(N(CC(=O)Nc2ccc(C(C)C)cc2)S(=O)(=O)c2c(C)noc2C)cc1	active: 27.1%	24
COc1ccccc1N1CCN(C(=O)C2CCN(S(=O)(=O)c3ccc4c(c3)CC(C)N4C(C)=O)CC2)CC1 (stereo not given)	active: 24.5%	25.2
CCC1CCCCN1CCCNC(=O)c1ccc(CS(=O)(=O)Cc2ccc(Cl)cc2)o1 (stereo not given)	active: 8.1%	13.8
Cc1cccn2c(=O)c3cc(C(=O)NC4CCCCC4)n(C)c3nc12	inactive: 1%	32.8
COc1ccc(-c2cc(C(F)(F)F)nc(SCC(=O)Nc3cc(C)on3)n2)cc1	active: 42%	46.3
O=c1c(S(=O)(=O)c2ccc(Cl)cc2)cn(Cc2ccccc2F)c2ccc(F)cc12	active: 22.5%	20.9
COc1ccc(Cc2nc(-c3cc(Cl)ccc3OC)no2)cc1OC	inactive: 4.8%	13.8
CCOc1ccccc1CNC(=O)C1CCN(C(=O)N2CC(C)Oc3ccc(C)cc32)CC1 (stereo not given)	inactive: 2.2%	10
CC(C)N(CCCNC(=O)C1CCN(C(=O)c2cc3sccc3n2C)CC1)Cc1ccccc1	active: 22.8%	28.8
CCc1ccc(NC(=O)C2CCCN(S(=O)(=O)c3cccs3)C2)cc1 (stereo not given)	active: 15.4%	15.9
COc1ccccc1N1CCN(C(=O)C2CCC(CNS(=O)(=O)c3ccc(NC(C)=O)cc3)CC2)CC1 (stereo not given)	active: 32.1%	37.3
Cc1ccc2[nH]c(O)c(/N=N/C(=O)C3CC3c3ccccc3)c2c1Br (stereo not given)	active: 9.8%	33
Cc1cccc2sc(N(CCCN(C)C)C(=O)c3cc4ccccc4oc3=O)nc12	active: 49.2%	43.9
CCc1ccc(NC(=O)CN(c2ccc(OC)cc2)S(=O)(=O)c2c(C)nn(C)c2C)cc1	active: 7.4%	25.4
Cc1ccc(-c2cc(C(F)F)n3ncc(C(=O)NCc4ccccc4F)c3n2)cc1	inactive: 0.5%	12.8
Cc1cc(NC(=O)c2cccc3c2C(=O)N(C2CCCCC2)C3)ccc1Br	inactive: 0.2%	15.4
COc1cc(C2CC(=O)N(CC(=O)NCC3CCCO3)c3ccccc3S2)cc(OC)c1OC (stereo not given)	inactive: 2.4%	11.6

Structure (SMILES)	Cell Painting induction (run: confirmation repeat)	Cell Painting induction [1] [%]
Cc1c(Cl)cccc1-n1ncc(C(=O)Nc2ccccc2F)c1C1CCNCC1	active: 27.1%	24.4
CCc1ccc(-c2cc(C)no2)cc1S(=O)(=O)Nc1cccc(CN2CCCC2)c1	active: 30.2%	29.5
O=C(Nc1ccc(C(=O)NCC2CCN(Cc3ccccc3F)CC2)cc1)C1=CSCCO1	active: 46.6%	52.2
Cc1c2cnn(CC(=O)NCCCN3CC(C)CC(C)C3)c(=O)c2c(C)n1Cc1ccc(Cl)cc1 (stereo not given)	active: 51.5%	54.6
OC(c1ccccc1)(c1ccccc1)C1CCN(C(=S)NCCc2ccccc2)CC1	active: 13.6%	11.9
COCCn1c(CN2CCN(C(c3ccccc3)c3ccccc3)CC2)nc2c1c(=O)n(C)c(=O)n2C	inactive: 0.7%	13
COc1ccc(N(CC(=O)N2CCN(c3cc(C)ccc3C)CC2)S(=O)(=O)c2c(C)noc2C)cc1	inactive: 2.4%	53
CCC1CCCCN1CCCNC(=O)Cn1ncc2c3cc(C)ccc3nc-2c1O (stereo not given)	inactive: 2.2%	12.4
CC(C)c1ccc(NC(=O)Cn2cc(C(=O)c3ccccc3)c(=O)c3cc(Cl)ccc32)cc1	active: 13.1%	10.9
CCCn1c2ccccc2c2nnc(SCC(=O)Nc3cc(C)on3)nc21	inactive: 0.7%	17.8
CCN(c1ccc(OC)cc1)S(=O)(=O)N1CCCC(C(=O)NCc2ccc(OC(C)C)cc2)C1 (stereo not given)	active: 12.3%	16.2
Cc1ccc(C)c(CN2CCC(CNC(=O)CCc3nnc4ccc(N5CCC(C)CC5)nn34)CC2)c1	active: 37.3%	47.3
Cc1ccc(-c2nn(-c3cccc(Cl)c3)c3c2cnc2ccccc23)cc1	inactive: 0.5%	19.3
Cc1ccc(N2CC(C(=O)N3CCC(C(=O)Nc4cccc(Br)c4)CC3)CC2=O)cc1 (stereo not given)	active: 13%	11.4
CC(=O)c1ccc(N2CCN(C(=O)Nc3ccc(F)cc3)CC2)cc1	active: 5.4%	10.4
CN(C)S(=O)(=O)c1ccc2c(c1)C(=NNC(N)=O)c1cc(S(=O)(=O)N(C)C)ccc1-2	active: 23.5%	10.5
Cn1cc(C(=O)NCc2ccc(Cl)cc2)c(=O)c2cc(S(=O)(=O)N3CCOCC3)ccc21	inactive: 0.2%	21.9
CCn1cc(C(=O)N2CCN(c3ccccn3)CC2)c(=O)c2cc(S(=O)(=O)N(C)C3CCCCC3)ccc21	inactive: 3.5%	12.4
COc1ccc(/C=C2/Sc3ccc(C(=O)N4CCOCC4)cc3NC2=O)cc1OC	active: 45.1%	41.8
CN(CC(=O)NCCN1CCN(Cc2ccccc2)CC1)S(=O)(=O)c1cccc2nsnc12	inactive: 1.4%	29
Cc1ccc(CNC(=O)c2cnn3c(C(F)(F)F)cc(-c4ccccc4)nc23)cc1	active: 17.3%	18
CCN(CC)CCOc1nnc(-c2ccc(OC)cc2)c2ccccc12	inactive: 2.1%	17.4
COc1ccc(N2CCN(CCCNC(=O)c3ccc(CS(=O)(=O)c4ccc(Cl)cc4)o3)CC2)cc1	active: 30.9%	31.6
COc1cccc(NC(=O)c2cccc(C(=O)Nc3cccc(OC)c3)c2)c1	active: 21.6%	22.5
Clc1cccc(-n2nc(-c3ccccc3)c3cnc4cc5c(cc4c32)OCCO5)c1	inactive: 0.2%	10
